# According to the supplement of paper PMC8728848:
# This is one part of the list.
# Columns and labels:
# Experiment in all cases: glycan array binding signal (z-score within array); higher = stronger binding
# Conditions in all cases: glycan notation: IUPAC condensed, linker removed
# [1] = molecular target: GalNAc(b1-3)Gal(a1-4)Gal(b1-4)GlcNAc
# In short: (§1)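 Glycan array binding is given as a within-array Z-score, which can be read as non-binding when negative. The arrays, 3228 of them, came from the Consortium for Functional Glycomics database and were retained only where the protein sequence was available. Z-scores were averaged across arrays of the same protein sequence at different concentrations or buffers and across linkers.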
# [2] = molecular target: GalNAc(b1-3)Gal(a1-4)Gal(b1-4)GlcNAc(b1-3)Gal(b1-4)Glc
# In short: as §1
# [3] = molecular target: GalNAc(b1-3)Gal(a1-6)Gal(b1-4)Glc
# In short: as §1
# GalNAc(b1-3)GalNAc = molecular target: GalNAc(b1-3)GalNAc
# In short: as §1
# GalNAc(b1-3)GlcNAc = molecular target: GalNAc(b1-3)GlcNAc
# In short: as §1
# GalNAc(b1-4)Gal(b1-4)Glc = molecular target: GalNAc(b1-4)Gal(b1-4)Glc
# In short: as §1
# GalNAc(b1-4)GlcNAc = molecular target: GalNAc(b1-4)GlcNAc
# In short: as §1
# [4] = molecular target: GalNAc(b1-4)GlcNAc(b1-2)Man
# In short: as §1
# [5] = molecular target: GalNAc(b1-4)GlcNAc(b1-2)Man(a1-3)[GalNAc(b1-4)GlcNAc(b1-2)Man(a1-6)]Man(b1-4)GlcNAc(b1-4)GlcNAc
# In short: as §1
# [6] = molecular target: GalNAc(b1-4)GlcNAc(b1-3)GalNAc(b1-4)GlcNAc
# In short: as §1
# GalNAc(b1-4)GlcNAc6S = molecular target: GalNAc(b1-4)GlcNAc6S
# In short: as §1
# GalNAc(b1-6)GalNAc = molecular target: GalNAc(b1-6)GalNAc
# In short: as §1
# GalNAc3S(b1-4)GlcNAc = molecular target: GalNAc3S(b1-4)GlcNAc
# In short: as §1
# GalNAc3S(b1-4)GlcNAc3S = molecular target: GalNAc3S(b1-4)GlcNAc3S
# In short: as §1
# [7] = molecular target: GalNAc3S(b1-4)[Fuc(a1-3)]GlcNAc
# In short: as §1
# GalNAc4S6S(b1-4)GlcNAc = molecular target: GalNAc4S6S(b1-4)GlcNAc
# In short: as §1
# GalNAc6S(b1-4)GlcNAc = molecular target: GalNAc6S(b1-4)GlcNAc
# In short: as §1
# Glc(a1-4)Glc = molecular target: Glc(a1-4)Glc
# In short: as §1
# [8] = molecular target: Glc(a1-4)Glc(a1-4)Glc(a1-4)Glc
# In short: as §1
# Glc(a1-6)Glc(a1-6)Glc = molecular target: Glc(a1-6)Glc(a1-6)Glc
# In short: as §1
# [9] = molecular target: Glc(a1-6)Glc(a1-6)Glc(a1-6)Glc
# In short: as §1
# Glc(b1-4)Glc = molecular target: Glc(b1-4)Glc
# In short: as §1
# Glc(b1-6)Glc = molecular target: Glc(b1-6)Glc
# In short: as §1
# GlcA(b1-3)Gal = molecular target: GlcA(b1-3)Gal
# In short: as §1
# GlcA(b1-3)GlcNAc = molecular target: GlcA(b1-3)GlcNAc
# In short: as §1
# GlcA(b1-6)Gal = molecular target: GlcA(b1-6)Gal
# In short: as §1
# [10] = molecular target: GlcA3S(b1-3)Gal(b1-4)GlcNAc(b1-2)Man
# In short: as §1
# [11] = molecular target: GlcA3S(b1-3)Gal(b1-4)GlcNAc(b1-3)Gal(b1-4)Glc
# In short: as §1
# [12] = molecular target: GlcNAc(a1-3)Gal(b1-4)GlcNAc
# In short: as §1
# [13] = molecular target: GlcNAc(a1-4)Gal(b1-3)GlcNAc
# In short: as §1
# [14] = molecular target: GlcNAc(a1-4)Gal(b1-4)GalNAc
# In short: as §1
# [15] = molecular target: GlcNAc(a1-4)Gal(b1-4)GlcNAc
# In short: as §1
# [16] = molecular target: GlcNAc(a1-4)Gal(b1-4)GlcNAc(b1-3)Gal(b1-4)Glc
# In short: as §1
# [17] = molecular target: GlcNAc(a1-4)Gal(b1-4)GlcNAc(b1-3)Gal(b1-4)GlcNAc
# In short: as §1
# [18] = molecular target: GlcNAc(a1-4)Gal(b1-4)GlcNAc(b1-3)Gal(b1-4)GlcNAc(b1-3)Gal(b1-4)GlcNAc
# In short: as §1
# [19] = molecular target: GlcNAc(a1-4)Gal(b1-4)GlcNAc(b1-3)Gal(b1-4)[Fuc(a1-3)]GlcNAc(b1-3)Gal(b1-4)[Fuc(a1-3)]GlcNAc
# In short: as §1
# [20] = molecular target: GlcNAc(a1-6)Gal(b1-4)GlcNAc
# In short: as §1
# [21] = molecular target: GlcNAc(b1-2)Gal(b1-3)GalNAc
# In short: as §1
binder,measurement,setting,value
CaSRK1 (Capsicum annuum) (protein) MALCKIFPFAFILLSCSCYLISGQRFDYPTANLSTTWINSVSAPHSIDYTDGSRIRAILLRGTFGPRYACGFYCNGNCESYLFAIFIVQTNSASQITSPAIGFPQVVWSANRNNPVKINSTLQLTAEGDLVLRDADGTLAWSTNTAGKSVAGLSLTDEGNLALFDSKNATVWQSFDHPTDALVPGQKLVPGMKLTASVSRTNWTAGGLFALSAIDNGLVAFVESNPPQKYFEASVGGSNTSGGSNYVKYLNGSLTLFTHSADTTELILISITPASSAQYMKLESNGHLKVYEWTSRGWREVDDLLTGFRGECNYPTVCGRYGICTMGQCSCPTSSSSRTYFRPIDVRRPSLGCSEVTKLTCQNTKKHSPLEVEDVDYFAFKAGISDTDLNTCKRACLEKCSCKAAFFRSGLNSSRTRGDCYLPTEIFSIMNNEKDRTRYDSVAFIKVQV,glycan array binding signal (z-score),[1],-0.291
same,glycan array binding signal (z-score),[2],0.694
same,glycan array binding signal (z-score),[3],0.166
same,glycan array binding signal (z-score),GalNAc(b1-3)GalNAc,-0.529
same,glycan array binding signal (z-score),GalNAc(b1-3)GlcNAc,-0.191
same,glycan array binding signal (z-score),GalNAc(b1-4)Gal(b1-4)Glc,1.01
same,glycan array binding signal (z-score),GalNAc(b1-4)GlcNAc,-0.168
same,glycan array binding signal (z-score),[4],-0.561
same,glycan array binding signal (z-score),[5],0.55
same,glycan array binding signal (z-score),[6],0.837
same,glycan array binding signal (z-score),GalNAc(b1-4)GlcNAc6S,0.352
same,glycan array binding signal (z-score),GalNAc(b1-6)GalNAc,-0.507
same,glycan array binding signal (z-score),GalNAc3S(b1-4)GlcNAc,-0.288
same,glycan array binding signal (z-score),GalNAc3S(b1-4)GlcNAc3S,-0.497
same,glycan array binding signal (z-score),[7],-0.511
same,glycan array binding signal (z-score),GalNAc4S6S(b1-4)GlcNAc,0.173
same,glycan array binding signal (z-score),GalNAc6S(b1-4)GlcNAc,-0.411
same,glycan array binding signal (z-score),Glc(a1-4)Glc,-0.288
same,glycan array binding signal (z-score),[8],0.933
same,glycan array binding signal (z-score),Glc(a1-6)Glc(a1-6)Glc,-0.21
same,glycan array binding signal (z-score),[9],0.961
same,glycan array binding signal (z-score),Glc(b1-4)Glc,0.369
same,glycan array binding signal (z-score),Glc(b1-6)Glc,0.326
same,glycan array binding signal (z-score),GlcA(b1-3)Gal,-0.496
same,glycan array binding signal (z-score),GlcA(b1-3)GlcNAc,1.42
same,glycan array binding signal (z-score),GlcA(b1-6)Gal,-0.332
same,glycan array binding signal (z-score),[10],-0.588
same,glycan array binding signal (z-score),[11],-0.508
same,glycan array binding signal (z-score),[12],-0.273
same,glycan array binding signal (z-score),[13],-0.005
same,glycan array binding signal (z-score),[14],-0.474
same,glycan array binding signal (z-score),[15],-0.534
same,glycan array binding signal (z-score),[16],-0.576
same,glycan array binding signal (z-score),[17],-0.575
same,glycan array binding signal (z-score),[18],-0.411
same,glycan array binding signal (z-score),[19],-0.412
same,glycan array binding signal (z-score),[20],-0.273
same,glycan array binding signal (z-score),[21],-0.097
